From the supplement of paper PMC3334620
Over roughly 33,000 sequences, “E-score (-0.5 to 0.5)” has its median near -0.012; the highest 2% begin near 0.27. The list shows a part of the results.

target: T1, Vhr1 (UniProt P40522); test: PBM E-score (8-mer binding enrichment) (E-score (-0.5 to 0.5)); higher = stronger / more preferred TF binding; most listed sequences are background and not binding sites; conditions: protein concentration: 200 nM; construct: GST-full length
T1 sequence: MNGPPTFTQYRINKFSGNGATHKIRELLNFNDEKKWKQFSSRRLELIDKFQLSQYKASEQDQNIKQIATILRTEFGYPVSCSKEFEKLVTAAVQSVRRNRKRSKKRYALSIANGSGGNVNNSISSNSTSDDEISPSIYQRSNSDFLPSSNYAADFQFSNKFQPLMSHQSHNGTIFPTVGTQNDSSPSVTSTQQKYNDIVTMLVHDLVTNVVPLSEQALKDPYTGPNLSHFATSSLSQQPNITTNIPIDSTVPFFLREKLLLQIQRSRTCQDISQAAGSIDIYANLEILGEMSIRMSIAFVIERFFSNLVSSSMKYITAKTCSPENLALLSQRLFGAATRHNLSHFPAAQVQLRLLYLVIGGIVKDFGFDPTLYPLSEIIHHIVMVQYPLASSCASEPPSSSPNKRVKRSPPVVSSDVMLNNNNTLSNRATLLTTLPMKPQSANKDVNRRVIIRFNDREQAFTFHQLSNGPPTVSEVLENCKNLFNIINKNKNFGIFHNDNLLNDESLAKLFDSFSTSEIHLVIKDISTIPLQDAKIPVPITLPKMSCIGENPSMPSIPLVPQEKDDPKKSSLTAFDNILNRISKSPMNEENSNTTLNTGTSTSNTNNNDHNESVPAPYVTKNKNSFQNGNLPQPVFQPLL
Procedure, shortened: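 Bound GST-tagged yeast transcription factors, applied at about 100-200 nM to double-stranded universal all-10-mer Agilent arrays, were detected with fluorescent anti-GST. Scans were normalised with masliner. A modified Wilcoxon-Mann-Whitney statistic, the E-score, was assigned to each ungapped eight-base word pooled with its reverse complement by the Universal PBM Analysis Suite.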

Sequence | PBM E-score
GGCTTCAC | -0.178
AAGTGTGT | 0.0443
GGAAAGGA | -0.0683
GACCTAAC | 0.109
AACGCCGG | 0.00627
CTAAACGA | -0.157
CTTCTCGA | -0.171
ACCCACCT | 0.0548
AGTCGAAT | 0.113
AGGTGGGC | -0.106
AACCGTTC | -0.0164
CCTGTCAC | -0.008
TATAACAA | 0.154
ATTTCGTC | 0.0081
CCCGAGGG | -0.0668
GTGAAGTA | -0.185
AATGAGAA | -0.264
CCTGTACC | -0.0168
CCGACAAC | 0.0395
CGTCACAG | 0.152
ACGCACAC | 0.199
AGTGTGAT | 0.296
ATAAGCGA | -0.0341
ATTGCACA | 0.0916
CGCACGAC | -0.00874

Sequence | PBM E-score
CGGGGAGC | -0.0465
GAGAAGTA | -0.164
CTCCCAGA | -0.222
GCCATGGC | -0.00308
ACAGAAGC | -0.00183
AGCACCCA | -0.0539
ATACGAAC | 0.0953
GAGGGGGA | -0.206
AGTTCCTA | -0.101
ATCATGTG | 0.204
AACTTAGT | -0.0782
ATAATGCG | -0.0118
GGCTCCCC | -0.00864
CGGGATAC | 0.132
ACTGATCG | 0.0591
GCCTGGGA | -0.0341
AAACTACA | 0.0884
CATCGAAC | -0.00391
ACGGCAGA | -0.0778
GCACGGTA | -0.119
CTGACTCC | 0.47
CTCTTAAC | -0.119
ACGAGAAC | 0.0182
ACATTTAA | -0.0418
ATGTACGC | -0.12

Sequence | PBM E-score
GCCCGCAC | 0.0853
ACGATATG | 0.181
TACTATAA | 0.191
CAGCAACC | 0.0974
AACGATGA | 0.076
ACCCATAT | 0.296
GTTTACGA | -0.0709
ACTCGGAG | 0.29
CAGGCGCG | 0.0246
CCGCTCCG | 0.0277
CGAGAGCG | -0.118
TATCAAGA | 0.0971
AACGCTTG | -0.00898
ACCTGATC | 0.0739
TGTATAAA | -0.0816
AAACCCTC | -0.191
ACAGAACC | -0.141
CCTCCGAA | -0.266
GAACAGGC | -0.168
AATAGCGA | 0.0648
AAACCACT | -0.125
GCCCGGAC | -0.0583
CTGATTGA | 0.177
ACTCGCTA | 0.133
AATACCTG | -0.138

Sequence | PBM E-score
AATAGGTC | -0.0642
ACCGATTA | 0.0335
ATTCCCAC | 0.037
AATGAGGC | -0.279
GCAATCAC | 0.159
TAGGCAAA | -0.254
AAAGGCGG | -0.0402
GCACTTCC | -0.261
GACCCAAA | 0.0473
GGCAAGAC | -0.138
CGCCACCC | 0.105
TAAGTGAA | -0.0403
ATCACCTG | 0.245
GCCCTCCC | -0.00152
AGCGATAT | 0.0779
CAAAATAC | -0.0801
CCAATTGA | 0.0252
GTTATTCA | 0.0116
ATGCACTA | 0.101
ATGGACAT | 0.0546
CCTCTTTA | -0.25
GTAGTGTA | 0.0691
CCCGTAAG | -0.119
ACCATTTC | 0.109
AACCCATC | 0.169

Sequence | PBM E-score
ACTCTGCA | 0.256
GCGAGCCA | 0.19
CAGATCGG | 0.0719
CGTACAGC | -0.0215
ATTATTGG | -0.0278
GCTAAAGC | -0.225
CCTAGATC | -0.0606
AGTGACAG | 0.0399
GATCAGAA | -0.156
CATTCAGC | -0.161
AAGGGCAA | -0.0617
ATACCCCG | 0.0169
CATGTCCA | 0.16
CTACCCAA | 0.0904
GTCGCGCA | 0.205
CTACAAAG | 0.111
GGCCTGAA | -0.155
GGAAACCA | -0.123
CAATCAAC | -0.0281
ACTTGTCG | -0.0696
AGTTTCTC | -0.163
AAATGTAA | -0.0606
ACAGCGTA | -0.126
GAAGGACA | -0.0903
ACTCTACG | -0.192

Sequence | PBM E-score
AACAGGCG | -0.115
GCGTGGCA | -0.22
ATAATGTA | 0.0729
CAGTGTTA | 0.132
ACCCGACC | -0.00763
GATCGACC | -0.0996
TAGGGCAA | -0.179
CAGTCATA | 0.291
CCGCTTGA | -0.019
CAGCTATG | -0.093
CATGGACA | 0.14
ATACCATA | 0.237
ACGCCCGT | 0.0276
CGTTGAGC | -0.246
TGGACGAA | -0.0312
AAATAACT | 0.109
CATTAAGG | -0.0689
CGACACCG | -0.0812
AGCTATGG | 0.0232
CTGGTGCC | -0.223
CAACCTAA | 0.049
GAAAGGCA | -0.124
GGAGTGGA | -0.188
ACGGCGAA | 0.0608
ATCTGTAC | 0.0611

Sequence | PBM E-score
CATGAAAC | 0.0573
TACGTCCA | -0.155
CCCTGGTA | -0.183
GTCGACGA | -0.0209
ATTCTGCG | 0.0109
AATCTGGC | -0.138
GATGCTCA | -0.00925
AACGAGCG | 0.00203
AAGTCGCG | 0.0758
TAAAATAA | -0.14
CGGACTTC | -0.196
GCTCGACC | -0.0414
ACAGTAAT | 0.158
GGACAGTA | 0.0666
CACCTGAA | -0.0796
CTGCTTTA | -0.00538
TCGGTTCA | -0.102
CACCTATC | 0.0251
CTACCGGA | 0.0224
GCGCAGAC | 0.024
CTCCCGAC | -0.0905
AAGGCTTC | -0.245
ACGCGATG | 0.148
CCAGAAGA | -0.00312
CCTTTCAA | -0.101

Sequence | PBM E-score
CCTACAAG | -0.0583
GAGAGATA | -0.125
ATGATAGA | 0.133
CGACTCTA | 0.225
CCCTGACC | 0.127
CACCACAG | 0.136
ACCAAACA | 0.067
ACAGCCCC | -0.0196
CAGAAATG | -0.168
GGGTGAGA | 0.0877
CGGTTCAG | -0.158
AGTGATCG | -0.0216
ATGAACGG | -0.0246
CTAGCGTC | -0.156
ACTGTATA | 0.056
AGGATCAC | -0.0227
CCCTCAAG | -0.255
CTGACGTA | -0.122
CTCGGTGA | -0.0359
CAAAGAAC | -0.206
ACCTCAAC | -0.101
CCATCAGA | -0.0758
GTATAGAA | -0.103
CATAAGTA | -0.0243
CGCCTGAG | 0.034

Sequence | PBM E-score
GAAATAAA | -0.147
CGACCGCG | 0.00566
ACACACCT | 0.283
AATGGTAA | 0.0643
CAAACTGA | 0.0375
CCACCCCA | 0.16
CGGACGCA | -0.0921
ATATTACG | 0.106
CGCCTCGC | 0.159
CGCCCGTA | -0.171
ACCACGAG | -0.014
AGCTTGTC | -0.112
AATGATCG | 0.0614
ATTTATAG | -0.0555
ATGGGACA | -0.0387
GCACGGCC | 0.0714
ACTATGAT | 0.351
ACATTAGC | -0.144
CATTAGAA | -0.00514
